Experimental findings from patent US20260151501A1, “ANTIBODY-DRUG CONJUGATE COMPRISING ANTI-CLAUDIN-18.2 ANTIBODY, AND THERAPEUTIC USE THEREOF FOR CANCER” (ABTIS CO., LTD., priority 2022, published 2026) are described below.

For assay [1], the target named is T1, claudin18.2 protein (CLDN18.2) (Homo sapiens, UniProt P56856).
T1 construct: purchased CUSABIO TECHNOLOGY LLC CSB-MP005498HU (A5)
In words: Cell-based ELISA binding to Claudin18.2 CHO-K1 cells. The conditions noted are these: CLDN18.2-CHO-K1, OD at 450 nm. As for the experimental part: (§1) OD value measurement through ELISA was performed by measuring the absorbance at 450 nm using a UV-Vis spectrometer.
A CHO-K1 cell line (hereinafter, referred to as “Claudin18.1 CHO-K1”) into which a gene (SEQ ID NO: 18) encoding the claudin18.1 protein (CLDN18.1) was transiently transfected, a CHO-K1 cell line (hereinafter, referred to as “Claudin18.2 CHO-K1”) into which a gene (SEQ ID NO: 19) encoding the claudin18.2 protein (CLDN18.2) was transiently transfected, and a CHO-K1 cell line (hereinafter, referred to as “MOCK CHO-K1”) into which only a NOCK vector (empty vector) was transiently transfected were prepared. At this time, a pcDNA3.1 vector was used for Claudin18.1 CHO-K1, and a pcDNA3.1 (+) vector was used for Claudin18.2 CHO-K1. […]
Transient transfection was performed according to the TransIT2020 manual, the transfected cells were plated on a 96-well plate for culture, and then treated with each of antibody-A and ADC-A. Thereafter, cell-based enzyme-linked immunosorbent assay (ELISA) was performed, and optical density (OD) values were measured.
The measured results were used for a regression analysis using GraphPad PRISM® 9.0 software to calculate EC50 and Bmax. The cell binding affinity of antibody-A and ADC-A was evaluated based on the calculated values.
(In general: In an ELISA, binding on a coated surface is turned into a signal by an enzyme label.)

Assay [2] addresses T1, claudin18.2 protein (CLDN18.2). In words: Indirect ELISA binding to CLDN18.2 VLP. The conditions noted are these: CLDN18.2 (antigen protein) VLP, OD at 450 nm. As for the experimental part: as §1
To confirm the binding strength to an antigen, a CLDN18.2˜VLP (virus-like particle) expressing the claudin18.2 protein (CLDN18.2) was prepared. At this time, CLDN18.2˜VLP is CSB-MP005498HU (A5) from CUSABIO TECHNOLOGY LLC.
After a 96-well plate was coated with the CLDN18.2 VLP for ELISA and treated with each of antibody-A and ADC-A, indirect ELISA was performed to measure OD values.
The measured results were used for a regression analysis in GraphPad PRISM® 9.0 software to calculate EC50 and Bmax. The antigen binding affinity of antibody-A, ADC-A, antibody-B, and ADC-B were evaluated based on the calculated values.

Assay [3] has as its system MIA PaCa-2˜CLDN18.2 cell line. As to the kind of experiment: Cell-based ELISA binding to MIA PaCa-2˜CLDN18.2 cells. As for the experimental part: as §1
(§2) Four types of cell lines (MIA PaCa-2˜CLDN18.2, PATU8988S, parental MIA PaCa-2 (CLDN18.2-), and SNU601) were prepared. At this time, MIA PaCa-2˜CLDN18.2 and PATU8988S are CLDN18.2-positive pancreatic cancer cell lines. MIA PaCa-2 (CLDN18.2-) is a CLDN18.2-negative pancreatic cancer cell line. SNU601 is a CLDN18.2-positive gastric cancer cell line.
(§3) The prepared cell lines were cultured in DMEM containing 10% FBS and 1% penicillin/streptomycin (MIA PaCa-2˜CLDN18.2, MIA PaCa-2 (CLDN18.2-)), RPMI1640 containing 10% FBS and 1% penicillin/streptomycin (SNU601), and DMEM containing 5% FBS, 5% serum, 1% penicillin/streptomycin, and 2 mM L-glutamine (PATU8988S) in an incubator under the conditions of 37° C. and 5% CO2.
(§4) The prepared cell lines were plated on 96-well plates for culture, and then treated with each of antibody-A, ADC-A, antibody-B, and ADC-B. Thereafter, cell-based ELISA was performed, and OD values were measured.
(§5) The measured results were used for a regression analysis in GraphPad PRISM® 9.0 software to calculate EC50 and Bmax. The cell binding affinity of antibody-A, ADC-A, antibody-B, and ADC-B to each cell line was evaluated based on the calculated values.

For assay [4], the system named is SNU601 cell line. In words: Cell-based ELISA binding to SNU601 cells. As to conditions: SNU601 (CLDN18.2+). As for the experimental part:
as §1, §2, §3, §4, §5

A further assay concerns PATU8988S cell line. In words: Cell-based ELISA binding to PATU8988S cells. As to conditions: PATU8988S (CLDN18.2+). As for the experimental part: as §1, §2, §3, §4, §5
The subject of assay [5] is MIA PaCa-2 (CLDN18.2-) cell line. As to the kind of experiment: Cell-based ELISA binding to MIA PaCa-2 (CLDN18.2-) cells. The conditions noted are these: CLDN18.2 negative cell line. As for the experimental part: as §1, §2, §3, §4, §5
Assay [6] relates to SNU601 cell line. In words: Cytotoxicity (CellTiter-Glo cell viability), SNU601. It is filed as cell-based. The conditions noted are these: SNU601 (CLDN18.2+), gastric cancer. As for the experimental part:
To measure cell viability in cytotoxicity experiments, the measurement of luminescence using GloMax® Discover was used, and the measurement method was according to the equipment manual.
Four types of cell lines (MIA PaCa-2˜CLDN18.2, PATU8988S, parental MIA PaCa-2 (CLDN18.2-), SNU601, NUGC-4, and AGS) were prepared. At this time, MIA PaCa-2˜CLDN18.2 and PATU8988S are CLDN18.2-positive pancreatic cancer cell lines. MIA PaCa-2 (CLDN18.2-) is a CLDN18.2-negative pancreatic cancer cell line. SNU601 and NUGC-4 are CLDN18.2-positive gastric cancer cell lines. AGS is a CLDN18.2-negative gastric cancer cell line.
The prepared cell lines were cultured in DMEM containing 10% FBS and 1% penicillin/streptomycin (MIA PaCa-2˜CLDN18.2, MIA PaCa-2 (CLDN18.2-)), RPMI1640 containing 10% FBS and 1% penicillin/streptomycin (SNU601, NUGC-4, and AGS), and DMEM containing 5% FBS, 5% horse serum, 1% penicillin/streptomycin, and […] L-glutamine (PATU8988S) in an incubator under the conditions of 37° C. and 5% CO2. […]
Changes in cell viability according to treatment of each test substance were measured using the same method as the CellTiter-Glo manual.
The measured results were used for a regression analysis in GraphPad PRISM® 9.0 software to calculate IC50. The cytotoxicity of each test substance was evaluated based on the calculated values.

B1: Antibody-A: anti-claudin18.2 antibody with heavy chain of SEQ ID NO: 16 and light chain of SEQ ID NO: 17 (antibody)
heavy: QVQLVESGGGVVQPGRSLRLSCAASGFSLTTYGVHWVRQAPGKGLEWVAVIWAGGSTNYNSALMSRFTISRDNSKNTLYLQMNSLRAEDTAVYYCARAAYYGNGLDYWGQGTMVTVSS[… human IgG1 constant region …]
light: DIVMTQSPLSLPVTPGEPASISCKSSQTLLNSGNQKNYLTWYLQKPGQSPQLLIYWASTGESGVPDRFSGSGSGTDFTLKISRVEAEDVGVYYCQNAYFYPFTFGGGTKVEIKRTVAAPSVFIFPPSDEQLKSGTASVVCLLNNFYPREAKVQWKVDNALQSGNSQESVTEQDSKDSTYSLSSTLTLSKADYEKHKVYACEVTHQGLSSPVTKSFNRGEC
modifications: heavy chain of Claudin18.2 antibody; light chain of Claudin18.2 antibody
For the molecule B1, the Bmax came to 1.149 in assay [1]; 3.229 in assay [2]; 3.534 in assay [3]; 3.002 with SNU601 cell line [4]; 1.743 in the assay on PATU8988S cell line. Further, in assay [5], the “binding to parental MIA PaCa-2” value is listed as “none of the test substances bound”. Moreover, in the assay on SNU601 cell line [6], the IC50 was greater than 66.7 nM.

B2: ADC-A (conjugate)
heavy: B1 heavy
light: B1 light
B2: in assay [5], the “binding to parental MIA PaCa-2” value is “none of the test substances bound”.

What is called IC50 is the concentration needed to halve the response being measured.
